Test results from the supplement of paper PMC12217912.
This is one part of the list. Sequences were assembled here from the parent chain. Values near 0.05 are background.

B1: TEV protease; numbered along this chain (parent)
chain: MGESLFKGPRDYNPISSSICHLTNESDGHTTSLYGIGFGPFIITNKHLFRRNNGTLVVQSLHGVFKVKDTTTLQQHLVDGRDMIIIRMPKDFPPFPQKLKFREPQREERICLVTTNFQTKSMSSMVSDTSCTFPSGDGIFWKHWIQTKDGQCGSPLVSTRDGFIVGIHSASNFTNTNNYFTSVPKNFMELLTNQEAQQWVSGWRLNADSVLWGGHKVFMVKPEEPFQPVKEATQL

Variants of: B1
Experiment: raw area under fraction-flipped curve 0-4 h after induction (AUC4h, not background-subtracted), DNA-recorder readout of cleavage of the substrate (dimensionless); higher = more cleavage of the substrate by the protease variant
Details: temperature: 34 °C; time window: 0-4 h after rhamnose induction
Procedure: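 In vivo DNA recorder in E. coli TOP10(DE3) ΔrhaA at 34 °C. Each TEVp single-site mutant (parent TEVp 0) is paired with a single-site variant of the 7-mer TEVs (canonical ENLYFQ|S). The substrate sits between flexible linkers in a Bxb1-sfGFP-TEVs-SsrA fusion, so cleavage stabilises Bxb1 and speeds flipping of a recombination array, read by NGS. The value is the raw area under the fraction-flipped curve over 0-4 h after rhamnose induction (AUC4h), with ≥20 reads per time point. It is not background-subtracted; inactive controls average about 0.047.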
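Also: Bxb1 expression induced with 0.2% (w/v) L-rhamnose at OD600 near 0.5, cultures sampled hourly, flipped fraction per protease–substrate barcode pair counted by paired-end Illumina sequencing.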

Variant | area with substrate ENLYFQA | area with substrate ENLYFQC | area with substrate ENLYFQD | area with substrate ENLYFQG | area with substrate ENLYFQH | area with substrate ENLYFQI | area with substrate ENLYFQL | area with substrate ENLYFQN | area with substrate ENLYFQP | area with substrate ENLYFQR | area with substrate ENLYFQS | area with substrate ENLYFQT | area with substrate ENLYFQV | area with substrate ENLYFQW | area with substrate ENLYFQK | area with substrate ENLYFQM | area with substrate ENLYFQQ | area with substrate ENLYFQY | area with substrate ENLYFQE | area with substrate ENLYFQF
I110G | 0.0488 | 0.0513 | 0.0673 | 0.0581 | 0.0574 | 0.0598 | 0.0463 | 0.0538 | 0.0348 | 0.0425 | 0.054 | 0.05 | 0.0483 | 0.0492 |  |  |  |  |  | 
I110D | 0.0504 | 0.0483 |  | 0.0389 | 0.0468 | 0.0513 |  | 0.043 | 0.0528 | 0.0487 | 0.056 | 0.0684 | 0.0616 | 0.0641 | 0.0381 | 0.0499 | 0.0427 | 0.0583 |  | 
I110T | 0.0794 | 0.0879 |  | 0.072 | 0.0752 | 0.052 | 0.0547 | 0.0672 | 0.0544 | 0.0516 | 0.0803 | 0.0683 |  | 0.0535 | 0.0543 | 0.0625 |  | 0.0474 | 0.0703 | 0.0465
P134D | 0.0755 | 0.084 | 0.0618 | 0.0821 | 0.0587 | 0.0564 | 0.0542 | 0.0783 | 0.0634 | 0.0606 | 0.0836 | 0.0594 | 0.0585 | 0.0564 | 0.0573 | 0.0633 | 0.0561 | 0.0512 |  | 0.0544
S127E | 0.0819 | 0.132 | 0.0684 | 0.0868 | 0.0673 | 0.0538 | 0.0675 | 0.0289 | 0.0647 | 0.0573 | 0.0964 | 0.0634 | 0.0736 |  | 0.0355 | 0.0964 | 0.0866 | 0.054 |  | 0.0779
S127G | 0.105 | 0.131 |  | 0.114 | 0.0915 | 0.084 | 0.0493 | 0.0528 | 0.0515 | 0.073 | 0.113 | 0.0687 | 0.044 | 0.0684 | 0.0642 | 0.0917 | 0.0734 | 0.0749 |  | 0.0609
S127K | 0.105 |  |  | 0.0535 | 0.0864 |  | 0.062 |  |  | 0.051 | 0.101 | 0.0657 |  |  |  |  |  |  |  | 0.096
F133K | 0.104 | 0.129 | 0.0716 |  | 0.0604 |  | 0.0747 | 0.0831 | 0.0708 | 0.0627 | 0.109 | 0.0798 | 0.063 | 0.0663 | 0.0565 | 0.111 |  |  |  | 
F133W | 0.0832 | 0.123 | 0.0862 |  | 0.0734 | 0.0641 | 0.0608 | 0.0896 |  | 0.0734 | 0.101 | 0.0694 | 0.0603 |  | 0.0663 |  | 0.0046 | 0.0883 |  | 
V157D | 0.0452 |  | 0.0588 | 0.0447 | 0.0439 | 0.0602 | 0.0468 |  |  | 0.142 | 0.0482 | 0.0586 |  | 0.0499 | 0.028 | 0.0382 |  | 0.0537 |  | 
V157L | 0.073 | 0.106 | 0.0739 | 0.0842 | 0.0769 | 0.0492 | 0.0548 | 0.104 |  | 0.0565 | 0.0948 |  | 0.0581 | 0.071 | 0.0789 | 0.0895 | 0.0588 | 0.0407 |  | 
K148E | 0.0675 | 0.106 |  |  | 0.0662 | 0.0683 | 0.0702 | 0.0954 | 0.0791 | 0.0536 | 0.0918 | 0.0596 | 0.0553 | 0.0738 | 0.0804 | 0.0929 | 0.0711 |  | 0.0507 | 
K148R | 0.0838 | 0.1 | 0.0738 |  |  | 0.0569 | 0.0649 | 0.0968 |  | 0.0653 | 0.108 | 0.0759 |  | 0.0656 | 0.0634 | 0.0884 |  |  |  | 
K148Q | 0.0955 |  | 0.0575 | 0.0665 |  |  | 0.0596 | 0.0754 |  | 0.0691 | 0.103 | 0.0744 |  | 0.0751 |  | 0.0872 |  |  |  | 0.071
T132I | 0.0936 |  |  | 0.0936 | 0.0719 | 0.051 | 0.0641 | 0.078 | 0.04 | 0.0691 | 0.101 | 0.0699 | 0.0719 | 0.0707 |  |  | 0.0612 |  | 0.057 | 
V126Y | 0.0799 | 0.118 | 0.0798 | 0.11 | 0.0853 | 0.0563 | 0.0616 | 0.0604 |  | 0.0675 | 0.102 | 0.0551 | 0.0608 | 0.0697 |  | 0.0941 |  | 0.0778 | 0.0747 | 
S123D | 0.0788 | 0.116 |  | 0.0858 | 0.0733 | 0.059 | 0.0593 | 0.0766 | 0.0611 | 0.0504 | 0.0976 | 0.0706 | 0.0517 | 0.0694 | 0.0652 |  | 0.0035 | 0.0815 |  | 
K142I | 0.0684 | 0.0875 |  | 0.0785 | 0.0799 | 0.0639 | 0.0741 | 0.0819 |  | 0.053 | 0.0902 | 0.0349 | 0.083 | 0.0515 | 0.0677 | 0.0769 | 0.091 | 0.0836 | 0.0799 | 0.102
K142L | 0.115 | 0.127 | 0.0908 | 0.0919 | 0.0625 | 0.0778 | 0.0643 | 0.0933 |  | 0.0602 | 0.115 | 0.0789 | 0.0586 | 0.0794 | 0.0772 | 0.104 | 0.0783 | 0.0998 |  | 0.0853
D149Y | 0.0788 | 0.096 | 0.0588 | 0.0763 | 0.0754 | 0.0604 | 0.0603 | 0.0571 | 0.0632 | 0.0477 | 0.0762 | 0.0928 | 0.057 | 0.0615 | 0.06 | 0.0702 |  | 0.0558 | 0.0573 | 
R109W | 0.0951 | 0.116 | 0.0367 |  | 0.0931 | 0.0609 | 0.0587 | 0.069 | 0.0839 | 0.065 | 0.0867 | 0.0687 | 0.0516 | 0.0742 | 0.067 | 0.083 |  |  |  | 0.0686
N116S | 0.0993 | 0.113 | 0.0821 | 0.0899 | 0.0731 |  | 0.0613 | 0.0669 | 0.0767 | 0.0693 | 0.111 | 0.0681 | 0.0617 |  | 0.0708 | 0.0925 |  | 0.0705 |  | 0.0652
C111M | 0.102 | 0.109 | 0.0733 | 0.103 |  | 0.0489 | 0.0598 | 0.0715 | 0.0575 | 0.0788 | 0.0911 | 0.0624 |  |  | 0.0678 | 0.0655 |  |  |  | 0.0707
